Test results taken from the supplement of paper PMC10126150.
Sequences with one replicate were seen in a single cluster, so their values are uncertain.

System: ATP
Test: switch fluorescence ratio, 500 uM ATP over buffer (Cy3 cluster intensity, sum of 5 cycles each) (fold (ratio)); higher = stronger signal-on switching upon ATP binding; sequences stand for … in TCGTCGGCAGCGTCAGATGTGTATAAGAGACAGTTTTTTTTTTTTTTTTTTTTTTTTT…TC
Details: aptamer strand: ATP DNA aptamer (quencher-CACCTGGGGGAGTATTGCGGAGGAAGG + anchor), 100 nM annealed; ATP concentration: 500 uM; one replicate
In short: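 Switching-strand clusters labelled with Cy3 on a modified Illumina MiSeq flow-cell were annealed to 100 nM quencher-labelled ATP aptamer, imaged in selection buffer, and re-imaged after 15 min with 500 uM ATP at 22 °C. This was done over five cycles with NaOH stripping and re-annealing in between. The fluorescence ratio is summed target-cycle over summed buffer-cycle Cy3 intensity per cluster, averaged per switch-domain sequence, excluding clusters outside 100-1000 RFU.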
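Note: ATP exposure 15 min at 22 °C before imaging.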

Row | Sequence | switch fluorescence ratio
1 | CGAACGTTGC | 2.82
2 | CAGTATATCT | 1.02
3 | AACGCGGGTA | 0.975
4 | TGTTCTCG | 1.02
5 | ACGACCGCAT | 3.52
6 | TTGATGTGAC | 1.02
7 | TAATCTGTAT | 0.983
8 | AATGGCTATG | 1.02
9 | ACGCAAAGTT | 1.26
10 | TCAGTTGGTG | 0.988
11 | ATCGTTCTTA | 0.949
12 | TCGAAAGAG | 0.999
13 | AGAGTCGGAT | 1.02
14 | ACTAGTCAGT | 1.09
15 | GTTTTCCAGA | 1.02
16 | CTAAGGATTG | 0.958
17 | AAGGCGGTTC | 0.939
18 | TGAACCCGA | 1.05
19 | ACTAGCGAAG | 1.02
20 | AATTCGACAT | 1.01
21 | TCCGGTGGGC | 0.957
22 | ATGGGCAACA | 1.07
23 | TTTTCTTCAC | 1.04
24 | CACCGTGATC | 3.98
25 | CGGTCCTCGC | 1.08
26 | CATCACAAGT | 1.06

Row | Sequence | switch fluorescence ratio
27 | CCTACTGGTC | 1.01
28 | AAGTGACAAA | 1.06
29 | GAGACAACCT | 1.99
30 | CGTCCTTTGG | 0.987
31 | GTCAGATAAC | 0.992
32 | GTGAGTGAA | 0.982
33 | GCCAATGATG | 0.965
34 | ACATAGGCTT | 1.01
35 | CCGCCTAATA | 5.06
36 | CAAGTTACCA | 1.18
37 | CCAATGGGTT | 0.978
38 | GCAAACGCGG | 1.07
39 | CCGGTTAGTT | 1.01
40 | CCGGGTCGTT | 0.998
41 | TCGTACATCA | 1.06
42 | CATCTTAA | 1.03
43 | CAAACTCCTG | 1.05
44 | CAGGCTGTTA | 0.998
45 | GTCATACCAA | 0.997
46 | CCGATTGCGG | 1.35
47 | GCGGAGGATG | 1.02
48 | AGTCCGGAGG | 1.05
49 | TGGGTATACC | 0.991
50 | ACGTTGATGC | 1.15
51 | GGCTGGATGA | 0.958
52 | TTATGCGGCC | 1.05

Row | Sequence | switch fluorescence ratio
53 | CCATAGGTAG | 1.02
54 | ATGTCGAGCC | 1.05
55 | AATAGCATG | 1.05
56 | AGAGTACCTG | 1.06
57 | GAGATCATCT | 1.04
58 | GCTTTTGAGT | 0.991
59 | CAATGCCTGG | 1.02
60 | TCTAGGCTGA | 1.02
61 | CTAACGGCGC | 1.05
62 | TGTGGGAGGA | 1.04
63 | CCCCGTTGGG | 0.946
64 | AGGTTCGGTA | 0.973
65 | GGATGGAAAA | 0.982
66 | GGAGGGCCAT | 0.954
67 | TTCTAACTGC | 1.06
68 | TTTTCTCT | 1.01
69 | TTAATCGTCC | 1.07
70 | GAGAGATTCG | 0.99
71 | GGGAGTCGCA | 0.895
72 | ATGATGCGTA | 0.959
73 | TTGTGTGTGA | 1.12
74 | CGTTATGTGG | 0.944
75 | CCGCCTCAGG | 3.72
76 | AGAGGGGA | 0.99
77 | GAGAGGTGGT | 1.04
78 | GGATGCAGTA | 1.02

Row | Sequence | switch fluorescence ratio
79 | TCAGTCTAGA | 1.01
80 | CGCAACATTT | 1.09
81 | CAATTCTGGA | 0.999
82 | CGTTTAGGCC | 1.02
83 | GACGGGGCAA | 1.31
84 | GGCGCTGGGT | 0.986
85 | AGTGTAAGCA | 1.03
86 | AAACAATTCG | 1.01
87 | GCAAGTGTAA | 1
88 | GCCGATACCT | 1.05
89 | CGGCACCTGG | 1.06
90 | TAGATTTTT | 1.01
91 | AAGAAGTCGC | 1.03
92 | GTTTCCCTCT | 0.987
93 | GCCATTAGGC | 0.968
94 | TTGTGTTCTC | 1.06
95 | TGTTGGTAGT | 1.03
96 | GGCCCAGAG | 1.07
97 | AAGAGTTGGG | 0.986
98 | TTCGAGGGGT | 1.03
99 | CTCCCTAAAT | 1.23
100 | CGTTGCTTTA | 0.956
101 | CTGGGTCGCT | 1.01
102 | CCTACCTAAT | 1.7
103 | ACTCATAAGA | 1.03
104 | CGTTGCAAAT | 1.01

Row | Sequence | switch fluorescence ratio
105 | TGCGTAACGG | 1.01
106 | CGTCGTTAGC | 1.02
107 | TCTGAGCAGG | 1.23
108 | GACCTATCAC | 1.09
109 | GGGTGTGTCT | 0.975
110 | GAAACTAGCA | 1
111 | TCTTGCTCTA | 1.01
112 | AGTATAAGGT | 0.989
113 | TATCCCATGA | 0.959
114 | TCGTATAGTA | 1.02
115 | TAAGGGGCGA | 0.952
116 | TGGAAAACCC | 1.05
117 | GTGCCAATTT | 1.01
118 | TTCGGCGGGA | 0.942
119 | GGCAGGTGCG | 1.04
120 | CAGCACTCAA | 1.04
121 | GCTGTGTGCA | 1.01
122 | GCCGTTTCAT | 1.01
123 | AGTCATGCGA | 1.03
124 | TATATTGTTG | 0.957
125 | TAAAGGCGTC | 1.04
126 | GTTGAAGTGC | 1.03
127 | ACGGGGGAAA | 0.993
128 | ATTCTAAAGC | 1.05
129 | GGCAGACGTC | 1.02
130 | AAACCAATTC | 1.11

Row | Sequence | switch fluorescence ratio
131 | AGAAAAGGCG | 0.999
132 | CTCTTTGCTG | 0.97
133 | TCTGATGCAT | 0.949
134 | TGGTGTTGGT | 0.968
135 | GGCGGTATAC | 1.97
136 | AAAGGCCACG | 1.05
137 | CTGTCCAGGT | 1.4
138 | CTATTAGTCT | 0.978
139 | GAGGTGCGTT | 1
140 | TATAAGGTTG | 0.966
141 | TTATCACAG | 1.02
142 | CCCGTTTATG | 1.06
143 | TAAGGGTGCG | 0.958
144 | TTCCCTTAA | 0.998
145 | ATGGCTATGC | 0.974
146 | GTTACCGATT | 0.97
147 | CTCCGAGCTA | 4.18
148 | CCTGTGCCAT | 2.21
149 | CCGAGTCATG | 1.91
150 | CCTTTTCCGT | 1.31
151 | AGATTCACAC | 1.05
152 | ATCCTTATAT | 1.02
153 | AAAGATGCGT | 0.966
154 | ACATGATGAT | 1
155 | GTCAGCCGGT | 1.01
156 | CGTTAAGGCG | 1.03

Row | Sequence | switch fluorescence ratio
157 | TTTGGTCCTG | 0.987
158 | GATAGTTGTG | 0.959
159 | GCCCCAACCG | 1.11
160 | ACAGACAGAC | 1.13
161 | TTTAGGAGCT | 1.04
162 | CCAGACGTGG | 1.01
163 | CGACCACTAA | 1.14
164 | AAAGGTTTG | 0.975
165 | AGCAACATCG | 1.03
166 | TATCACGAAT | 1.01
167 | GTAGCAGGGT | 1.05
168 | GACAACGTGG | 1.03
169 | ATTCAGGATA | 0.989
170 | TTTGACTCGT | 0.968
171 | TTTCGCTCAG | 1
172 | AGGGCGGGG | 0.955
173 | TCAGGTTGTA | 0.994
174 | GATCAATTTT | 0.96
175 | AGTAGTATAG | 1.02
176 | GAGTGTGAT | 0.965
177 | ATTATGGCGG | 0.967
178 | CGGCGTAGCA | 0.938
179 | TATTGGCATC | 0.952
180 | CCCGATTCAT | 0.998
181 | CGTCCCATAA | 2.29
182 | CAGTCATCAA | 1.02

Row | Sequence | switch fluorescence ratio
183 | GCACCGGAAA | 1.78
184 | AATAGAAGTG | 1.02
185 | AAGAGAAGTA | 1.07
186 | ATAGGCTGAC | 1.07
187 | TGGTATTGAG | 0.97
188 | AGGCGTTCAG | 0.996
189 | GCTCGCATGG | 1.38
190 | GATGCAACTT | 1.03
191 | TTGATCAAAA | 1.08
192 | GACGGGTGCT | 1.04
193 | ACTACGAAGG | 1.03
194 | GAGTCAGGTG | 2.3
195 | TTTGTAGAGG | 0.982
196 | GGCCTCGTGT | 1.1
197 | GGTAATTGGA | 0.922
198 | GGTGTGACTT | 1.02
199 | TTGTTGTAT | 0.972
200 | ACGCTCATTG | 1.01
201 | CCCGCAGGTA | 1.91
